# Assay results published in paper PMC8335751 (Nature structural & molecular biology, 2021).
# B1: full-length rat TRPV1 (transient receptor potential vanilloid member 1) (natural protein)
# chain: not shown
# Target: the molecule itself
# Assay: cryo-EM structure
protein,measurement,value
B1,stoichiometry N,4
